The record followed here is patent publication US20230250147A1, “GLP-1R AGONISTIC PEPTIDES WITH REDUCED ACTIVITY” (SANOFI, priority 2020, published 2023).

Data set [1] addresses T1, Human GLP-1R (Homo sapiens, UniProt P43220).
T1 construct: expressed in transfected cells; host or cells: HEK-293
Briefly: HTRF cAMP assay in HEK-293 cells, human GLP-1R. It is filed as cell-based.

Data set [2] deals with T2, Mouse GLP-1R (Mus musculus, UniProt O35659).
T2 construct: expressed in transfected cells; host or cells: HEK-293
T2 sequence (O35659 22-463): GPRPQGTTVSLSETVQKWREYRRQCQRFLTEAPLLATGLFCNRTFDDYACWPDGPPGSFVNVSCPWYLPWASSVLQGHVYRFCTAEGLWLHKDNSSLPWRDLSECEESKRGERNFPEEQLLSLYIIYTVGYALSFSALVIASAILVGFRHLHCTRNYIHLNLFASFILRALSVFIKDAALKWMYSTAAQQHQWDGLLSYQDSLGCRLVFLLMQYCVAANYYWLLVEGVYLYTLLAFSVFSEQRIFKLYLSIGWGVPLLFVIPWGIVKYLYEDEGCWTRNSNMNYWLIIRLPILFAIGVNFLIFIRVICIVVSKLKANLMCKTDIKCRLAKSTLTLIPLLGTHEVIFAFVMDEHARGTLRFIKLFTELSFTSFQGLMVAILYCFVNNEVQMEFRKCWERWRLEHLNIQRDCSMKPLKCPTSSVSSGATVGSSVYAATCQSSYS
Briefly: HTRF cAMP assay in HEK-293 cells, mouse GLP-1R. Format: cell-based. In general terms: TR-FRET usually uses a lanthanide donor and a delayed reading to cut background.

The target in data set [3] is T3, Monkey GLP-1R (Macaca fascicularis, UniProt F8V479).
T3 construct: expressed in transfected cells; host or cells: HEK-293
Nature of the data set: HTRF cAMP assay in HEK-293 cells, monkey GLP-1R. Format: cell-based.

Data set [4] can be described thus: Conformational and thermal stability on UNit (intrinsic fluorescence and static light scattering). It is filed as physicochemical. As to conditions: 5 mg/mL in phosphate buffer pH 7.4. The protocol: Conformational stability and propensity to aggregate was determined simultaneously for the GLP-1RA/FGF21 Fc fusion proteins using a UNit (Unchained Labs, Calif., USA). The UNit combines the analysis of intrinsic fluorescence of a protein or polypeptide to detect unfolding of the protein or polypeptide and a Static Light Scattering (SLS) measurement in order to investigate aggregation behavior.
Data were acquired for the fusion proteins at a concentration of 5 mg/mL formulated in phosphate buffer at pH 7.4. A volume of 9 μL of each sample were loaded into a UNi capillary holder and analyzed in triplicate on the UNit. The temperature was increased from 20 to 95° C. at a constant linear rate of 0.3° C./minutes. The BaryCentric Mean (BCM) indicating the intrinsic fluorescence and SLS signals detected with a 266 nm laser were plotted against the applied temperature in order to obtain melting temperatures (Tm) and aggregation onset temperatures (Tagg). Data were analyzed using the UNit Analysis software v.

T1 sequence (P43220 24-463): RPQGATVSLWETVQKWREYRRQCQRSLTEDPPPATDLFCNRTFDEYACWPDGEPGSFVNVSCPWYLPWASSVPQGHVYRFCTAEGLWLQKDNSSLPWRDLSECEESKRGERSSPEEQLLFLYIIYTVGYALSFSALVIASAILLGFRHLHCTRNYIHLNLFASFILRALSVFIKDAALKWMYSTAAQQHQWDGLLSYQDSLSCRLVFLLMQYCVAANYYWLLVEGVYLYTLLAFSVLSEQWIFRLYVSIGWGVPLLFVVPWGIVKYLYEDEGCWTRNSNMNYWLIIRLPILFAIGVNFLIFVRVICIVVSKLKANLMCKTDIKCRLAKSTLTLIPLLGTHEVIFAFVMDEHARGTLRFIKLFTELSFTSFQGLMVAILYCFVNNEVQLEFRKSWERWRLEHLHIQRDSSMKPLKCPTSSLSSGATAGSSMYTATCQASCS
T3 sequence (F8V479 24-463): as the sequence (P43220 24-463) above, with S112N, F120S, S202G, L205V, L237F, W241R, I249V counted along it

B1: 3 (protein)
chain: GHGEGTFTSDKSKQLEEEAVRLFIEWLKAGGPKKIRYSGGGGGGGSGGGGSGGGGSA[… human IgG4 Fc with changes …]GGGSGSAHPIPDSSPLLQFGGQVRQRYLYTDDACQTEAHLEIREDGTVGGAADQSPESLLQLKALKPGVIQILGVKTSRFLCQRPDGALYGSLHFDPEACSFRELLLEDGYNVYQSEAHGLPLHLPGCKSPHRDPAPRGPARFLPLPGLPPAPPEPPGILAPQPPDVGSSDPLSMVGSQGRSPSYAS
modifications: Fusion Protein
Consider B1, for which the 50% effective concentration (EC50) in data set [1] is 212 pM; in data set [2], 97.2 pM; in data set [3] it was 279 pM. Also, the “Tagg (aggregation onset temperature)” value in data set [4] (UNit SLS 266 nm) came out at 65.3 °C. Besides, the “Tm (melting temperature)” value in data set [4] (UNit) was found to be 63.9 °C.

B2: 69 (protein)
chain: GHGEGTFTSDLSIQLEEEAVRLFIEWLLAGGPSSGKPKPKGGGGGGGSGGGGSGGGGSA[… human IgG4 Fc with changes …]GGGSGSAHPIPDSSPLLQFGGQVRQRYLYTDDACQTEAHLEIREDGTVGGAADQSPESLLQLKALKPGVIQILGVKTSRFLCQRPDGALYGSLHFDPEACSFRELLLEDGYNVYQSEAHGLPLHLPGCKSPHRDPAPRGPARFLPLPGLPPAPPEPPGILAPQPPDVGSSDPLSMVGSQGRSPSYAS
modifications: Fusion Protein
B2: the 50% effective concentration (EC50) was 15.3 pM in data set [1], 17.3 pM in data set [2] and 14.7 pM in data set [3].

B3: 70 (protein)
chain: GHGEGTFTSDLSIQLEEEAVRLFIEWLLAKGKSKGKPKPKGGGGGGGSGGGGSGGGGSA[… human IgG4 Fc with changes …]GGGSGSAHPIPDSSPLLQFGGQVRQRYLYTDDACQTEAHLEIREDGTVGGAADQSPESLLQLKALKPGVIQILGVKTSRFLCQRPDGALYGSLHFDPEACSFRELLLEDGYNVYQSEAHGLPLHLPGCKSPHRDPAPRGPARFLPLPGLPPAPPEPPGILAPQPPDVGSSDPLSMVGSQGRSPSYAS
modifications: Fusion Protein
For B3, the concentration giving a half-maximal response (EC50) was 41.4 pM in data set [1], 83.1 pM in data set [2] and 38.8 pM in data set [3].

B4: 83 (protein)
chain: HGEGTFTSDKSKQLEKRLVRLFIEWLIAVGHSGKPPPKGGGGGGGSGGGGSGGGGSA[… human IgG4 Fc with changes …]GGGSGSAHPIPDSSPLLQFGGQVRQRYLYTDDACQTEAHLEIREDGTVGGAADQSPESLLQLKALKPGVIQILGVKTSRFLCQRPDGALYGSLHFDPEACSFRELLLEDGYNVYQSEAHGLPLHLPGCKSPHRDPAPRGPARFLPLPGLPPAPPEPPGILAPQPPDVGSSDPLSMVGSQGRSPSYAS
modifications: Fusion Protein
Take B4: the figures for the EC50 in data set [1], in data set [2] and in data set [3] were 29.3 pM, 56 pM and 28.1 pM, respectively.

B5: 71 (protein)
chain: FGEGTFTSDKSKQLEKRLVRLFIEWLIAGGHSSGKPPPKGGGGGGGSGGGGSGGGGSA[… human IgG4 Fc with changes …]GGGSGSAHPIPDSSPLLQFGGQVRQRYLYTDDACQTEAHLEIREDGTVGGAADQSPESLLQLKALKPGVIQILGVKTSRFLCQRPDGALYGSLHFDPEACSFRELLLEDGYNVYQSEAHGLPLHLPGCKSPHRDPAPRGPARFLPLPGLPPAPPEPPGILAPQPPDVGSSDPLSMVGSQGRSPSYAS
modifications: Fusion Protein
B5: the figures for the EC50 in data set [1], in data set [2] and in data set [3] were 27.8 pM, 53.5 pM and 26.6 pM, respectively.

B6: 82 (protein)
chain: HGEGTFTSDKSKQLEKRLVRLFIELLIAGGHSSGKPPPKGGGGGGGSGGGGSGGGGSA[… human IgG4 Fc with changes …]GGGSGSAHPIPDSSPLLQFGGQVRQRYLYTDDACQTEAHLEIREDGTVGGAADQSPESLLQLKALKPGVIQILGVKTSRFLCQRPDGALYGSLHFDPEACSFRELLLEDGYNVYQSEAHGLPLHLPGCKSPHRDPAPRGPARFLPLPGLPPAPPEPPGILAPQPPDVGSSDPLSMVGSQGRSPSYAS
modifications: Fusion Protein
For the molecule B6, the values for the EC50 in data set [1], in data set [2] and in data set [3] were 90.1 pM, 72.5 pM and 109 pM, respectively.

B7: 81 (protein)
chain: HGEGTFTSDKSKQLEKRLVRLFIYWLIAGGHSSGKPPPKGGGGGGGSGGGGSGGGGSA[… human IgG4 Fc with changes …]GGGSGSAHPIPDSSPLLQFGGQVRQRYLYTDDACQTEAHLEIREDGTVGGAADQSPESLLQLKALKPGVIQILGVKTSRFLCQRPDGALYGSLHFDPEACSFRELLLEDGYNVYQSEAHGLPLHLPGCKSPHRDPAPRGPARFLPLPGLPPAPPEPPGILAPQPPDVGSSDPLSMVGSQGRSPSYAS
modifications: Fusion Protein
B7: the EC50 in data set [1] was 49.9 pM; in data set [2] it was 67.4 pM; in data set [3] it was 49.4 pM.

B8: 74 (protein)
chain: HGEGTFTSDKSKQLEKRLVILFIEWLIAGGHSSGKPPPKGGGGGGGSGGGGSGGGGSA[… human IgG4 Fc with changes …]GGGSGSAHPIPDSSPLLQFGGQVRQRYLYTDDACQTEAHLEIREDGTVGGAADQSPESLLQLKALKPGVIQILGVKTSRFLCQRPDGALYGSLHFDPEACSFRELLLEDGYNVYQSEAHGLPLHLPGCKSPHRDPAPRGPARFLPLPGLPPAPPEPPGILAPQPPDVGSSDPLSMVGSQGRSPSYAS
modifications: Fusion Protein
Consider B8, for which the concentration for a half-maximal effect (EC50) in data set [1] is 13.5 pM; in data set [2] it was 18.3 pM; in data set [3], 13.7 pM.

B9: 72 (protein)
chain: HGEGTFTSDKSKQLEKRLFRLFIEWLIAGGHSSGKPPPKGGGGGGGSGGGGSGGGGSA[… human IgG4 Fc with changes …]GGGSGSAHPIPDSSPLLQFGGQVRQRYLYTDDACQTEAHLEIREDGTVGGAADQSPESLLQLKALKPGVIQILGVKTSRFLCQRPDGALYGSLHFDPEACSFRELLLEDGYNVYQSEAHGLPLHLPGCKSPHRDPAPRGPARFLPLPGLPPAPPEPPGILAPQPPDVGSSDPLSMVGSQGRSPSYAS
modifications: Fusion Protein
In the case of B9, the values for the EC50 in data set [1], in data set [2] and in data set [3] were 20.4 pM, 77.5 pM and 25 pM, respectively.

B10: 78 (protein)
chain: HGEGTFTSDKSKQLEKRLVRLFYEWLIAGGHSSGKPPPKGGGGGGGSGGGGSGGGGSA[… human IgG4 Fc with changes …]GGGSGSAHPIPDSSPLLQFGGQVRQRYLYTDDACQTEAHLEIREDGTVGGAADQSPESLLQLKALKPGVIQILGVKTSRFLCQRPDGALYGSLHFDPEACSFRELLLEDGYNVYQSEAHGLPLHLPGCKSPHRDPAPRGPARFLPLPGLPPAPPEPPGILAPQPPDVGSSDPLSMVGSQGRSPSYAS
modifications: Fusion Protein
Take B10: the EC50 in data set [1] stood at 51 pM; in data set [2], 323 pM; in data set [3], 52.5 pM.

B11: 79 (protein)
chain: HGEGTFTSDKSKQLEKRLVRLFFEWLIAGGHSSGKPPPKGGGGGGGSGGGGSGGGGSA[… human IgG4 Fc with changes …]GGGSGSAHPIPDSSPLLQFGGQVRQRYLYTDDACQTEAHLEIREDGTVGGAADQSPESLLQLKALKPGVIQILGVKTSRFLCQRPDGALYGSLHFDPEACSFRELLLEDGYNVYQSEAHGLPLHLPGCKSPHRDPAPRGPARFLPLPGLPPAPPEPPGILAPQPPDVGSSDPLSMVGSQGRSPSYAS
modifications: Fusion Protein
Consider B11, for which the figures for the half-maximal effective concentration (EC50) in data set [1], in data set [2] and in data set [3] were 243 pM, 2510 pM and 296 pM, respectively.

B12: 76 (protein)
chain: HGEGTFTSDKSKQLEKRLVRLLIEWLIAGGHSSGKPPPKGGGGGGGSGGGGSGGGGSA[… human IgG4 Fc with changes …]GGGSGSAHPIPDSSPLLQFGGQVRQRYLYTDDACQTEAHLEIREDGTVGGAADQSPESLLQLKALKPGVIQILGVKTSRFLCQRPDGALYGSLHFDPEACSFRELLLEDGYNVYQSEAHGLPLHLPGCKSPHRDPAPRGPARFLPLPGLPPAPPEPPGILAPQPPDVGSSDPLSMVGSQGRSPSYAS
modifications: Fusion Protein
As to B12, the EC50 in data set [1] stood at 39.2 pM; in data set [2], 190 pM; in data set [3], 40.3 pM.

B13: 80 (protein)
chain: HGEGTFTSDKSKQLEKRLVRLFILWLIAGGHSSGKPPPKGGGGGGGSGGGGSGGGGSA[… human IgG4 Fc with changes …]GGGSGSAHPIPDSSPLLQFGGQVRQRYLYTDDACQTEAHLEIREDGTVGGAADQSPESLLQLKALKPGVIQILGVKTSRFLCQRPDGALYGSLHFDPEACSFRELLLEDGYNVYQSEAHGLPLHLPGCKSPHRDPAPRGPARFLPLPGLPPAPPEPPGILAPQPPDVGSSDPLSMVGSQGRSPSYAS
modifications: Fusion Protein
On to B13, for which the EC50 was found to be 48.6 pM in data set [1], 64.4 pM in data set [2] and 42.5 pM in data set [3].

Usually EC50 stands for the concentration that produces a half-maximal response.
